{
  "source": "the supplement of paper PMC8728848",
  "assay_in_all_cases": "glycan array binding signal (z-score within array); higher = stronger binding",
  "conditions_in_all_cases": "glycan notation: IUPAC condensed, linker removed",
  "key": {"[1]": {"target": "Neu5Ac(a2-3)Gal(b1-4)GlcNAc(b1-3)[Neu5Ac(a2-3)Gal(b1-4)GlcNAc(b1-6)]GalNAc", "in_short": "(§1)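 Glycan array data came from 3228 arrays in the Consortium for Functional Glycomics database, and only arrays with an available protein sequence were kept. Glycan names were put into IUPAC-condensed notation, and columns mapping to the same glycan were averaged. The binding signal is a within-array Z-score, averaged across arrays of one protein sequence run at different concentrations or buffers and across linkers. A negative Z-score can be read as non-binding.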"}, "[2]": {"target": "Neu5Ac(a2-3)Gal(b1-4)GlcNAc(b1-6)GalNAc", "in_short": "as §1"}, "[3]": {"target": "Neu5Ac(a2-3)Gal(b1-4)GlcNAc(b1-6)[Gal(b1-3)]GalNAc", "in_short": "as §1"}, "[4]": {"target": "Neu5Ac(a2-3)Gal(b1-4)GlcNAc(b1-6)[Neu5Ac(a2-3)Gal(b1-3)]GalNAc", "in_short": "as §1"}, "[5]": {"target": "Neu5Ac(a2-3)Gal(b1-4)GlcNAc6S", "in_short": "as §1"}, "[6]": {"target": "Neu5Ac(a2-3)Gal(b1-4)[Fuc(a1-3)]GlcNAc", "in_short": "as §1"}, "[7]": {"target": "Neu5Ac(a2-3)Gal(b1-4)[Fuc(a1-3)]GlcNAc(b1-2)Man", "in_short": "as §1"}, "[8]": {"target": "Neu5Ac(a2-3)Gal(b1-4)[Fuc(a1-3)]GlcNAc(b1-3)Gal", "in_short": "as §1"}, "[9]": {"target": "Neu5Ac(a2-3)Gal(b1-4)[Fuc(a1-3)]GlcNAc(b1-3)Gal(b1-4)GlcNAc", "in_short": "as §1"}, "[10]": {"target": "Neu5Ac(a2-3)Gal(b1-4)[Fuc(a1-3)]GlcNAc(b1-3)Gal(b1-4)[Fuc(a1-3)]GlcNAc(b1-3)Gal(b1-4)[Fuc(a1-3)]GlcNAc", "in_short": "as §1"}, "[11]": {"target": "Neu5Ac(a2-3)Gal(b1-4)[Fuc(a1-3)]GlcNAc(b1-3)GalNAc", "in_short": "as §1"}, "[12]": {"target": "Neu5Ac(a2-3)Gal(b1-4)[Fuc(a1-3)]GlcNAc(b1-6)[Gal(b1-3)]GalNAc", "in_short": "as §1"}, "[13]": {"target": "Neu5Ac(a2-3)Gal(b1-4)[Fuc(a1-3)]GlcNAc(b1-6)[Neu5Ac(a2-3)Gal(b1-3)]GalNAc", "in_short": "as §1"}, "[14]": {"target": "Neu5Ac(a2-3)Gal(b1-4)[Fuc(a1-3)]GlcNAc6S", "in_short": "as §1"}, "[15]": {"target": "Neu5Ac(a2-3)Gal6S(b1-4)GlcNAc", "in_short": "as §1"}, "[16]": {"target": "Neu5Ac(a2-3)Gal6S(b1-4)[Fuc(a1-3)]GlcNAc", "in_short": "as §1"}, "Neu5Ac(a2-3)GalNAc": {"target": "Neu5Ac(a2-3)GalNAc", "in_short": "as §1"}, "[17]": {"target": "Neu5Ac(a2-3)GalNAc(b1-4)GlcNAc", "in_short": "as §1"}, "[18]": {"target": "Neu5Ac(a2-3)[GalNAc(b1-4)]Gal(b1-4)Glc", "in_short": "as §1"}, "[19]": {"target": "Neu5Ac(a2-3)[GalNAc(b1-4)]Gal(b1-4)GlcNAc", "in_short": "as §1"}, "[20]": {"target": "Neu5Ac(a2-3)[GalNAc(b1-4)]Gal(b1-4)GlcNAc(b1-3)GalNAc", "in_short": "as §1"}, "[21]": {"target": "Neu5Ac(a2-3)[Neu5Ac(a2-6)]GalNAc", "in_short": "as §1"}, "Neu5Ac(a2-6)Gal": {"target": "Neu5Ac(a2-6)Gal", "in_short": "as §1"}, "[22]": {"target": "Neu5Ac(a2-6)Gal(b1-3)GlcNAc(b1-3)[Gal(b1-4)GlcNAc(b1-6)]Gal(b1-4)Glc", "in_short": "as §1"}, "Neu5Ac(a2-6)Gal(b1-4)Glc": {"target": "Neu5Ac(a2-6)Gal(b1-4)Glc", "in_short": "as §1"}, "[23]": {"target": "Neu5Ac(a2-6)Gal(b1-4)GlcNAc", "in_short": "as §1"}, "[24]": {"target": "Neu5Ac(a2-6)Gal(b1-4)GlcNAc(b1-2)Man", "in_short": "as §1"}, "[25]": {"target": "Neu5Ac(a2-6)Gal(b1-4)GlcNAc(b1-2)Man(a1-3)Man(b1-4)GlcNAc(b1-4)GlcNAc", "in_short": "as §1"}, "[26]": {"target": "Neu5Ac(a2-6)Gal(b1-4)GlcNAc(b1-2)Man(a1-3)[Gal(b1-4)GlcNAc(b1-2)Man(a1-6)]Man(b1-4)GlcNAc(b1-4)GlcNAc", "in_short": "as §1"}, "[27]": {"target": "Neu5Ac(a2-6)Gal(b1-4)GlcNAc(b1-2)Man(a1-3)[GlcNAc(b1-2)Man(a1-6)]Man(b1-4)GlcNAc(b1-4)GlcNAc", "in_short": "as §1"}, "[28]": {"target": "Neu5Ac(a2-6)Gal(b1-4)GlcNAc(b1-2)Man(a1-3)[GlcNAc(b1-4)][Neu5Ac(a2-6)Gal(b1-4)GlcNAc(b1-2)Man(a1-6)]Man(b1-4)GlcNAc(b1-4)GlcNAc", "in_short": "as §1"}},
  "note": "This is one part of the list.",
  "data": [
    {"binder": "Arath Fbox (Arabidopsis thaliana), NP_178341.1 (protein) EFTWGRKRRVKSESSPFDSFPEDCISYIISFTNPRDACVAATVSKTFESTVKSDIIWEKFLPADYESLIPPSRVFSSKKELYFSLCNDPVLFDDDKKSVWLEKASGKRCLMLSAMNLSIIWGDNPQYWQWIPIPESRFEKVAKLRDVCWFEIRGRTNTRVLSPRTRYSAYIVFKGVDKCYGFQNVAIEAAVGVVGQEPSRRLICFSEAIRRGRRNVVKPKQREDGWMEIELGEFFNDGGIMDNDEIEMSALETKQLNRKCGLIIQGIEIRPAKILAAAAASFLEQKLISEEDLNSAVDHHHHHH", "values": [
      {"measurement": "glycan array binding signal (z-score)", "setting": "[1]", "result": -0.768},
      {"measurement": "glycan array binding signal (z-score)", "setting": "[2]", "result": 0.075},
      {"measurement": "glycan array binding signal (z-score)", "setting": "[3]", "result": 1.6},
      {"measurement": "glycan array binding signal (z-score)", "setting": "[4]", "result": -0.718},
      {"measurement": "glycan array binding signal (z-score)", "setting": "[5]", "result": 0.949},
      {"measurement": "glycan array binding signal (z-score)", "setting": "[6]", "result": -0.673},
      {"measurement": "glycan array binding signal (z-score)", "setting": "[7]", "result": -0.423},
      {"measurement": "glycan array binding signal (z-score)", "setting": "[8]", "result": -0.54},
      {"measurement": "glycan array binding signal (z-score)", "setting": "[9]", "result": 0.309},
      {"measurement": "glycan array binding signal (z-score)", "setting": "[10]", "result": -0.557},
      {"measurement": "glycan array binding signal (z-score)", "setting": "[11]", "result": 2.69},
      {"measurement": "glycan array binding signal (z-score)", "setting": "[12]", "result": 0.975},
      {"measurement": "glycan array binding signal (z-score)", "setting": "[13]", "result": 2.17},
      {"measurement": "glycan array binding signal (z-score)", "setting": "[14]", "result": -0.627},
      {"measurement": "glycan array binding signal (z-score)", "setting": "[15]", "result": -0.45},
      {"measurement": "glycan array binding signal (z-score)", "setting": "[16]", "result": -0.559},
      {"measurement": "glycan array binding signal (z-score)", "setting": "Neu5Ac(a2-3)GalNAc", "result": -0.404},
      {"measurement": "glycan array binding signal (z-score)", "setting": "[17]", "result": -0.734},
      {"measurement": "glycan array binding signal (z-score)", "setting": "[18]", "result": -0.122},
      {"measurement": "glycan array binding signal (z-score)", "setting": "[19]", "result": -0.659},
      {"measurement": "glycan array binding signal (z-score)", "setting": "[20]", "result": -0.439},
      {"measurement": "glycan array binding signal (z-score)", "setting": "[21]", "result": -0.205},
      {"measurement": "glycan array binding signal (z-score)", "setting": "Neu5Ac(a2-6)Gal", "result": 0.211},
      {"measurement": "glycan array binding signal (z-score)", "setting": "[22]", "result": -0.627},
      {"measurement": "glycan array binding signal (z-score)", "setting": "Neu5Ac(a2-6)Gal(b1-4)Glc", "result": -0.577},
      {"measurement": "glycan array binding signal (z-score)", "setting": "[23]", "result": 0.207},
      {"measurement": "glycan array binding signal (z-score)", "setting": "[24]", "result": 1.84},
      {"measurement": "glycan array binding signal (z-score)", "setting": "[25]", "result": -0.179},
      {"measurement": "glycan array binding signal (z-score)", "setting": "[26]", "result": -0.062},
      {"measurement": "glycan array binding signal (z-score)", "setting": "[27]", "result": -0.546},
      {"measurement": "glycan array binding signal (z-score)", "setting": "[28]", "result": -0.647}
    ]}
  ]
}
